This is an account of results in a collection of fitness landscapes (doi:10.1016/j.celrep.2020.107928).

Over roughly 81,000 sequences, “one-hybrid fitness for binding parS DNA” has its median near -0.17; the highest 2% begin near 0.51. This is one part of the list.

To fix the notation:
B1: Caulobacter ParB omega fusion; a variant is named by its letters at X, in order, B8GW30 (parent)
chain: MESVVVGEPGMSEGRRGLGRGLSALLGEVDAAPAQAPGEQLGGSREAPIEILQRNPDQPRRTFREEDLEDLSNSIREKGVLQPILVRPSPDTAGEYQIVAGERAWRAAQRAGLKTVPIMVRELDDLAVLEIGIIENVQRADLNVLEEALSYKVLMEKFERTQENIAQTIGKSXSHVANXMRLLXLPDEVQSYLVSGELTAXHARAIAAAADPVALAKQIIEGGLSVRETEALARKAPNLSAGKSKGGRPPRVKDTDTQALESDLSSVLGLDVSIDHRGSTGTLTITYATLEQLDDLCNRLTRGI

In this test the parent is B1. As to the kind of experiment: one-hybrid fitness for binding parS DNA (scaled: cognate 1, non-cognate 0); higher = stronger binding. Conditions: with parS DNA site. The procedure, abridged:
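Fitness is the rescaled log change in variant-to-wild-type read ratio, measured by Illumina sequencing of plasmids before and after bacterial one-hybrid selection. The scale puts cognate at 1 and non-cognate at 0. Selection of Caulobacter ParB libraries, four specificity codons randomised, took place in E. coli USO with a HIS3 reporter, site 19 bp from the promoter, over 48 hours at 37°C on M9-minus-histidine with 0.1 mM IPTG and 5 mM 3-AT.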
For the variant FGDT, the “one-hybrid fitness for binding parS DNA” value is not above 0.2.

In the case of SETY, the “one-hybrid fitness for binding parS DNA” value was not above 0.2.

Take LYNF: the “one-hybrid fitness for binding parS DNA” value is not above 0.2.

QIGN: the “one-hybrid fitness for binding parS DNA” value was not above 0.2.

In the case of TQTH, the “one-hybrid fitness for binding parS DNA” value was not above 0.2.

As to RNAN, the “one-hybrid fitness for binding parS DNA” value came to 0.301.

As to VNGG, the “one-hybrid fitness for binding parS DNA” value was not above 0.2.

As for PPPA, the “one-hybrid fitness for binding parS DNA” value is not above 0.2.

For SWST, the “one-hybrid fitness for binding parS DNA” value was not above 0.2.

Turning to LAIR, the “one-hybrid fitness for binding parS DNA” value was not above 0.2.

With DKLS, the “one-hybrid fitness for binding parS DNA” value was not above 0.2.

As for KINE, the “one-hybrid fitness for binding parS DNA” value was not above 0.2.

For FNPC, the “one-hybrid fitness for binding parS DNA” value was not above 0.2.

As for KPSA, the “one-hybrid fitness for binding parS DNA” value is not above 0.2.

On to NPCP, for which the “one-hybrid fitness for binding parS DNA” value is not above 0.2.

On to IAAQ, for which the “one-hybrid fitness for binding parS DNA” value was not above 0.2.

Turning to NWVC, the “one-hybrid fitness for binding parS DNA” value is not above 0.2.

With GAPD, the “one-hybrid fitness for binding parS DNA” value is not above 0.2.

With MPHV, the “one-hybrid fitness for binding parS DNA” value was not above 0.2.

Regarding AQRT, the “one-hybrid fitness for binding parS DNA” value is not above 0.2.

With FMTY, the “one-hybrid fitness for binding parS DNA” value is not above 0.2.

Take LEHR: the “one-hybrid fitness for binding parS DNA” value is not above 0.2.

For MALF, the “one-hybrid fitness for binding parS DNA” value is not above 0.2.

Consider GVWT, for which the “one-hybrid fitness for binding parS DNA” value was not above 0.2.

In the case of SPPI, the “one-hybrid fitness for binding parS DNA” value was not above 0.2.

Consider NTNS, for which the “one-hybrid fitness for binding parS DNA” value was not above 0.2.

Turning to PAGD, the “one-hybrid fitness for binding parS DNA” value is not above 0.2.

Regarding RSQR, the “one-hybrid fitness for binding parS DNA” value is not above 0.2.

On to ASDA, for which the “one-hybrid fitness for binding parS DNA” value was not above 0.2.

As to TPES, the “one-hybrid fitness for binding parS DNA” value is not above 0.2.

TWIS: the “one-hybrid fitness for binding parS DNA” value was not above 0.2.

Take CVRT: the “one-hybrid fitness for binding parS DNA” value is not above 0.2.

As for QCNA, the “one-hybrid fitness for binding parS DNA” value is not above 0.2.

Take DIPF: the “one-hybrid fitness for binding parS DNA” value was not above 0.2.

Turning to LGEC, the “one-hybrid fitness for binding parS DNA” value is not above 0.2.

As to SQGG, the “one-hybrid fitness for binding parS DNA” value was not above 0.2.

Turning to TICS, the “one-hybrid fitness for binding parS DNA” value was not above 0.2.

As to WMPR, the “one-hybrid fitness for binding parS DNA” value was not above 0.2.

As to NGHR, the “one-hybrid fitness for binding parS DNA” value was not above 0.2.

For the variant CKLS, the “one-hybrid fitness for binding parS DNA” value was not above 0.2.

With GQPR, the “one-hybrid fitness for binding parS DNA” value is not above 0.2.

As to PSNP, the “one-hybrid fitness for binding parS DNA” value is not above 0.2.

For the variant QCMW, the “one-hybrid fitness for binding parS DNA” value is not above 0.2.

For RRYI, the “one-hybrid fitness for binding parS DNA” value was not above 0.2.

In the case of VEPM, the “one-hybrid fitness for binding parS DNA” value was not above 0.2.

In the case of QYYF, the “one-hybrid fitness for binding parS DNA” value is not above 0.2.

As to TYRW, the “one-hybrid fitness for binding parS DNA” value is not above 0.2.

Consider PYEH, for which the “one-hybrid fitness for binding parS DNA” value was not above 0.2.

For the variant IGMR, the “one-hybrid fitness for binding parS DNA” value was not above 0.2.

Turning to HSDF, the “one-hybrid fitness for binding parS DNA” value is not above 0.2.

Take GCRN: the “one-hybrid fitness for binding parS DNA” value was not above 0.2.

For LHMS, the “one-hybrid fitness for binding parS DNA” value is not above 0.2.

Consider GNHR, for which the “one-hybrid fitness for binding parS DNA” value is not above 0.2.

Regarding CSTQ, the “one-hybrid fitness for binding parS DNA” value was not above 0.2.

Regarding VQEG, the “one-hybrid fitness for binding parS DNA” value was not above 0.2.

As to EMFA, the “one-hybrid fitness for binding parS DNA” value was not above 0.2.

QSGY: the “one-hybrid fitness for binding parS DNA” value is not above 0.2.

Consider SGVV, for which the “one-hybrid fitness for binding parS DNA” value was not above 0.2.

Turning to VASW, the “one-hybrid fitness for binding parS DNA” value was not above 0.2.

Take SING: the “one-hybrid fitness for binding parS DNA” value was not above 0.2.

For the variant PLHV, the “one-hybrid fitness for binding parS DNA” value is not above 0.2.

In the case of DWVF, the “one-hybrid fitness for binding parS DNA” value was not above 0.2.

In the case of QDRN, the “one-hybrid fitness for binding parS DNA” value is not above 0.2.

In the case of DTRE, the “one-hybrid fitness for binding parS DNA” value was not above 0.2.

Regarding CQPE, the “one-hybrid fitness for binding parS DNA” value is not above 0.2.

Regarding TMQS, the “one-hybrid fitness for binding parS DNA” value was not above 0.2.

With SYNT, the “one-hybrid fitness for binding parS DNA” value was not above 0.2.

Take TKSM: the “one-hybrid fitness for binding parS DNA” value is not above 0.2.

For the variant TPHC, the “one-hybrid fitness for binding parS DNA” value is not above 0.2.

For the variant MWGS, the “one-hybrid fitness for binding parS DNA” value is not above 0.2.

As to CRVT, the “one-hybrid fitness for binding parS DNA” value was not above 0.2.

As for VWMG, the “one-hybrid fitness for binding parS DNA” value was not above 0.2.

YIKV: the “one-hybrid fitness for binding parS DNA” value was not above 0.2.

In the case of PVLG, the “one-hybrid fitness for binding parS DNA” value was not above 0.2.

For PHPM, the “one-hybrid fitness for binding parS DNA” value is not above 0.2.

With NSLS, the “one-hybrid fitness for binding parS DNA” value was not above 0.2.

Take EWKG: the “one-hybrid fitness for binding parS DNA” value was not above 0.2.

For QEIT, the “one-hybrid fitness for binding parS DNA” value is not above 0.2.

As for CLPG, the “one-hybrid fitness for binding parS DNA” value is not above 0.2.

As to LYAL, the “one-hybrid fitness for binding parS DNA” value was not above 0.2.

Turning to GVPL, the “one-hybrid fitness for binding parS DNA” value was not above 0.2.

As to RQTG, the “one-hybrid fitness for binding parS DNA” value amounted to 1.01.

As to QFWR, the “one-hybrid fitness for binding parS DNA” value was not above 0.2.

As to LSWM, the “one-hybrid fitness for binding parS DNA” value is not above 0.2.

Take YVTI: the “one-hybrid fitness for binding parS DNA” value was not above 0.2.

SLCY: the “one-hybrid fitness for binding parS DNA” value was not above 0.2.

DTHD: the “one-hybrid fitness for binding parS DNA” value was not above 0.2.

Consider QLQL, for which the “one-hybrid fitness for binding parS DNA” value was not above 0.2.

Regarding LAYL, the “one-hybrid fitness for binding parS DNA” value is not above 0.2.

For LVSC, the “one-hybrid fitness for binding parS DNA” value was not above 0.2.

Take QTCL: the “one-hybrid fitness for binding parS DNA” value was not above 0.2.

Regarding KRCK, the “one-hybrid fitness for binding parS DNA” value is not above 0.2.

As to CTIS, the “one-hybrid fitness for binding parS DNA” value was not above 0.2.

LWAD: the “one-hybrid fitness for binding parS DNA” value was not above 0.2.

As for RDQR, the “one-hybrid fitness for binding parS DNA” value is not above 0.2.

On to ACCS, for which the “one-hybrid fitness for binding parS DNA” value is not above 0.2.

SVFR: the “one-hybrid fitness for binding parS DNA” value is not above 0.2.

For RCCC, the “one-hybrid fitness for binding parS DNA” value was 0.959.

For the variant WRLR, the “one-hybrid fitness for binding parS DNA” value was not above 0.2.

On to VIGG, for which the “one-hybrid fitness for binding parS DNA” value is not above 0.2.

Consider CGYG, for which the “one-hybrid fitness for binding parS DNA” value was not above 0.2.

For the variant TRRF, the “one-hybrid fitness for binding parS DNA” value is not above 0.2.

As for PMCW, the “one-hybrid fitness for binding parS DNA” value is not above 0.2.

Turning to HTTY, the “one-hybrid fitness for binding parS DNA” value is not above 0.2.

As for LCRA, the “one-hybrid fitness for binding parS DNA” value is not above 0.2.

Turning to LEMR, the “one-hybrid fitness for binding parS DNA” value was not above 0.2.

For the variant RGMM, the “one-hybrid fitness for binding parS DNA” value was not above 0.2.

Take WITA: the “one-hybrid fitness for binding parS DNA” value was not above 0.2.

On to CEDR, for which the “one-hybrid fitness for binding parS DNA” value was not above 0.2.

As to LRGC, the “one-hybrid fitness for binding parS DNA” value is not above 0.2.

As to RNME, the “one-hybrid fitness for binding parS DNA” value was not above 0.2.

As for NEPL, the “one-hybrid fitness for binding parS DNA” value was not above 0.2.

On to SNYR, for which the “one-hybrid fitness for binding parS DNA” value is not above 0.2.

As for DSSE, the “one-hybrid fitness for binding parS DNA” value is not above 0.2.

As to LRFR, the “one-hybrid fitness for binding parS DNA” value was not above 0.2.

With QIKS, the “one-hybrid fitness for binding parS DNA” value is not above 0.2.

With ENLL, the “one-hybrid fitness for binding parS DNA” value is not above 0.2.

As for GPNG, the “one-hybrid fitness for binding parS DNA” value is not above 0.2.

Turning to YASE, the “one-hybrid fitness for binding parS DNA” value is not above 0.2.

Regarding YSAS, the “one-hybrid fitness for binding parS DNA” value was not above 0.2.

On to VHKC, for which the “one-hybrid fitness for binding parS DNA” value is not above 0.2.

For KLHW, the “one-hybrid fitness for binding parS DNA” value is not above 0.2.

Consider PNLV, for which the “one-hybrid fitness for binding parS DNA” value was not above 0.2.

For QGAN, the “one-hybrid fitness for binding parS DNA” value was not above 0.2.

In the case of CCAI, the “one-hybrid fitness for binding parS DNA” value was not above 0.2.

Consider CVMR, for which the “one-hybrid fitness for binding parS DNA” value is not above 0.2.

Consider PYPN, for which the “one-hybrid fitness for binding parS DNA” value was not above 0.2.

Turning to HKNL, the “one-hybrid fitness for binding parS DNA” value was not above 0.2.

Take IGFV: the “one-hybrid fitness for binding parS DNA” value is not above 0.2.

Regarding HPKY, the “one-hybrid fitness for binding parS DNA” value was not above 0.2.

Turning to QALV, the “one-hybrid fitness for binding parS DNA” value was not above 0.2.

As for VPWL, the “one-hybrid fitness for binding parS DNA” value is not above 0.2.

Consider RYLD, for which the “one-hybrid fitness for binding parS DNA” value was 0.206.

As for NGTE, the “one-hybrid fitness for binding parS DNA” value is not above 0.2.

Consider KHYT, for which the “one-hybrid fitness for binding parS DNA” value is not above 0.2.

As to TPSR, the “one-hybrid fitness for binding parS DNA” value was not above 0.2.

With SNYH, the “one-hybrid fitness for binding parS DNA” value is not above 0.2.

QQKC: the “one-hybrid fitness for binding parS DNA” value is not above 0.2.

As to RMPD, the “one-hybrid fitness for binding parS DNA” value was not above 0.2.

For SELR, the “one-hybrid fitness for binding parS DNA” value is not above 0.2.

QNEG: the “one-hybrid fitness for binding parS DNA” value was not above 0.2.

For PRGK, the “one-hybrid fitness for binding parS DNA” value was not above 0.2.

Turning to HPTK, the “one-hybrid fitness for binding parS DNA” value is not above 0.2.

For TNKY, the “one-hybrid fitness for binding parS DNA” value is not above 0.2.

As to LCQC, the “one-hybrid fitness for binding parS DNA” value is not above 0.2.

Regarding RKKM, the “one-hybrid fitness for binding parS DNA” value is 0.231.

With TIGG, the “one-hybrid fitness for binding parS DNA” value is not above 0.2.

For LDMV, the “one-hybrid fitness for binding parS DNA” value was not above 0.2.

As to MRPS, the “one-hybrid fitness for binding parS DNA” value is not above 0.2.

On to QLMN, for which the “one-hybrid fitness for binding parS DNA” value was not above 0.2.

On to FYRR, for which the “one-hybrid fitness for binding parS DNA” value is not above 0.2.

Turning to CRLA, the “one-hybrid fitness for binding parS DNA” value was not above 0.2.

For the variant HKYA, the “one-hybrid fitness for binding parS DNA” value was not above 0.2.
